Assay results from ChEMBL document CHEMBL4689842, “EUbOPEN Chemogenomics Library wave 1” (2021).
Not every entry of the source has a single result; some have several. This list holds those alone. An entry can have further records. Results that share an entry repeat one measurement (runs, samples, wells, individuals or studies).

Assays:
Assay type in all cases: toxicity, cell-based
Fibroblast = assay: Multiplex assay against human fibroblast
Procedure, shortened: (§1)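 Per cents of healthy-nucleus cells form the tubulin, mitochondrial-mass and membrane-permeability phenotype values. Live cells were stained at seeding with Hoechst33342, BioTracker Green Microtubule Cytoskeleton Dye, MitoTracker Red and Annexin V Alexa Fluor 680. After compound addition they were imaged on a CQ1 microscope at 37°C and 5% CO2, and CellPathfinder machine-learning gating split them into Hoechst high-intensity objects or normal cells, normal cells into healthy, pyknosed or fragmented nuclei, and pyknosed cells into mitotic or apoptotic.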

U2OS = assay: Multiplex assay against U2OS; settings: human; procedure, shortened: as §1
HEK-293T = assay: Multiplex assay against HEK293T; settings: human; procedure, shortened: as §1;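 as to Population Tubulin-Different-Phenotype (%): share of the cells with healthy nuclei that show this phenotype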
[1] = 12 h, 10 µM, compound concentration 10 uM, replicate 1
[2] = 12 h, 10 µM, compound concentration 10 uM, replicate 2
[3] = 24 h, 10 µM, compound concentration 10 uM, replicate 1
[4] = 24 h, 10 µM, compound concentration 10 uM, replicate 2
[5] = 12 h, 1 µM, compound concentration 1 uM, replicate 2
[6] = 24 h, 1 µM, compound concentration 1 uM, replicate 1
[7] = 24 h, 1 µM, compound concentration 1 uM, replicate 2
[8] = 12 h, 1 µM, compound concentration 1 uM, replicate 1

## CCOC(=O)Nc1cc(-c2ccc(C)c(NS(C)(=O)=O)c2)nn2c(C)nnc12
Fibroblast; [1]
  Population Membrane Permeable-Phenotype (%): 34% and 10%
  Population Tubulin-Different-Phenotype (%): 31% and 5%
Fibroblast; [2]
  Population Fragmented Nuclei (%): 51% and 8%
  Population Hoechst High Intensity Objects (%): 22% and 2%
  Population Mitochondria Different-Phenotype (%): 3% and 11%
  Population Tubulin-Different-Phenotype (%): 12% and 89%
Fibroblast; [3]
  Population Tubulin-Different-Phenotype (%): 22% and 5%
Fibroblast; [4]
  Population Apoptotic (%): 0% and 28%
  Population Fragmented Nuclei (%): 52% and 3%
  Population Hoechst High Intensity Objects (%): 28% and 2%
  Population Pyknosed Nuclei (%): 1% and 5%
  Population Tubulin-Different-Phenotype (%): 6% and 96%
U2OS; [1]
  Population Mitochondria Different-Phenotype (%): 7% and 22%
  Population Tubulin-Different-Phenotype (%): 96% and 27%
U2OS; [2]
  Population Apoptotic (%): 40% and 0%
U2OS; [3]
  Population Apoptotic (%): 11% and 66%
  Population Tubulin-Different-Phenotype (%): 95% and 25%
HEK-293T; [1]
  Population Healthy Nuclei (%): 23% and 77%
  Population Mitochondria Different-Phenotype (%): 62% and 5%
  Population Pyknosed Nuclei (%): 57% and 13%
  Population Tubulin-Different-Phenotype (%): 12% and 2%
HEK-293T; [2]
  Population Pyknosed Nuclei (%): 3% and 41%
  Total Cell Count: 2390 and 206
HEK-293T; [3]
  Population Mitochondria Different-Phenotype (%): 27% and 4%
  Population Pyknosed Nuclei (%): 48% and 5%
  Total Cell Count: 298 and 958
HEK-293T; [4]
  Population Apoptotic (%): 1% and 4%
  Population Fragmented Nuclei (%): 6% and 45%
  Population Pyknosed Nuclei (%): 24% and 1%
  Total Cell Count: 268 and 3866

## CN1CCN(Cc2cc(NC(=O)c3ccc4c(c3)CN(c3ccccc3)CC4)cc(C(F)(F)F)c2)CC1
Fibroblast; [5]
  Population Membrane Permeable-Phenotype (%): 22% and 6%
  Population Tubulin-Different-Phenotype (%): 18% and 55%
Fibroblast; [6]
  Population Tubulin-Different-Phenotype (%): 41% and 12%
Fibroblast; [7]
  Population Mitotic Cells (%): 0% and 60%
U2OS; [8]
  Population Fragmented Nuclei (%): 20% and 5%
  Population Mitochondria Different-Phenotype (%): 62% and 14%
  Population Pyknosed Nuclei (%): 15% and 4%
U2OS; [5]
  Population Apoptotic (%): 34% and 0%
  Population Mitochondria Different-Phenotype (%): 68% and 17%
U2OS; [6]
  Population Mitochondria Different-Phenotype (%): 75% and 10%
  Population Pyknosed Nuclei (%): 38% and 3%
  Population Tubulin-Different-Phenotype (%): 94% and 26%
U2OS; [7]
  Population Apoptotic (%): 55% and 12%
  Population Mitochondria Different-Phenotype (%): 85% and 16%
  Population Pyknosed Nuclei (%): 34% and 9%
  Population Tubulin-Different-Phenotype (%): 98% and 23%
HEK-293T; [8]
  Population Mitochondria Different-Phenotype (%): 39% and 11%
  Population Tubulin-Different-Phenotype (%): 82% and 17%
HEK-293T; [5]
  Population Hoechst High Intensity Objects (%): 10% and 2%
  Population Membrane Permeable-Phenotype (%): 19% and 4%
  Population Tubulin-Different-Phenotype (%): 98% and 23%
HEK-293T; [6]
  Population Hoechst High Intensity Objects (%): 29% and 9%
  Population Membrane Permeable-Phenotype (%): 21% and 6%
  Population Tubulin-Different-Phenotype (%): 89% and 26%
HEK-293T; [7]
  Population Hoechst High Intensity Objects (%): 10% and 3%
  Population Membrane Permeable-Phenotype (%): 34% and 9%
  Population Mitochondria Different-Phenotype (%): 14% and 2%
  Population Pyknosed Nuclei (%): 7% and 2%
  Population Tubulin-Different-Phenotype (%): 96% and 19%

## CN(c1ccccc1CNc1nc(Nc2ccc3c(c2)CC(=O)N3)ncc1C(F)(F)F)S(C)(=O)=O
Fibroblast; [1]
  Population Membrane Permeable-Phenotype (%): 51% and 8%
  Population Mitochondria Different-Phenotype (%): 9% and 2%
  Population Tubulin-Different-Phenotype (%): 62% and 11%
Fibroblast; [2]
  Population Apoptotic (%): 0% and 35%
  Population Membrane Permeable-Phenotype (%): 0% and 50%
  Population Pyknosed Nuclei (%): 6% and 25%
  Population Tubulin-Different-Phenotype (%): 10% and 64%
Fibroblast; [3]
  Population Mitochondria Different-Phenotype (%): 16% and 1%
  Population Mitotic Cells (%): 29% and 8%
  Population Tubulin-Different-Phenotype (%): 69% and 5%
Fibroblast; [4]
  Population Apoptotic (%): 25% and 83%
  Population Mitotic Cells (%): 75% and 16%
  Population Tubulin-Different-Phenotype (%): 13% and 60%
U2OS; [1]
  Population Fragmented Nuclei (%): 30% and 6%
  Population Membrane Permeable-Phenotype (%): 46% and 10%
  Population Pyknosed Nuclei (%): 24% and 3%
U2OS; [2]
  Population Mitotic Cells (%): 8% and 66%
  Population Pyknosed Nuclei (%): 16% and 2%
U2OS; [3]
  Population Apoptotic (%): 81% and 25%
  Population Hoechst High Intensity Objects (%): 18% and 4%
  Population Membrane Permeable-Phenotype (%): 55% and 16%
  Population Mitotic Cells (%): 18% and 75%
  Population Pyknosed Nuclei (%): 27% and 6%
U2OS; [4]
  Population Membrane Permeable-Phenotype (%): 31% and 9%
  Population Pyknosed Nuclei (%): 33% and 10%
HEK-293T; [1]
  Population Mitochondria Different-Phenotype (%): 13% and 3%
  Population Tubulin-Different-Phenotype (%): 27% and 3%
HEK-293T; [2]
  Population Hoechst High Intensity Objects (%): 7% and 2%
  Population Tubulin-Different-Phenotype (%): 76% and 11%
HEK-293T; [3]
  Population Mitochondria Different-Phenotype (%): 18% and 4%
  Population Pyknosed Nuclei (%): 35% and 5%
  Population Tubulin-Different-Phenotype (%): 19% and 6%
HEK-293T; [4]
  Population Fragmented Nuclei (%): 2% and 19%
  Population Pyknosed Nuclei (%): 13% and 2%
  Population Tubulin-Different-Phenotype (%): 65% and 11%

## CNCc1ccccc1-c1csc([C@@H](C)Nc2nc(C)nc3cc(OC)c(OC)cc23)c1 [BAY-293]
Fibroblast; [1]
  Population Hoechst High Intensity Objects (%): 41% and 12%
  Population Mitochondria Different-Phenotype (%): 2% and 33%
  Population Tubulin-Different-Phenotype (%): 17% and 75%
Fibroblast; [2]
  Population Mitochondria Different-Phenotype (%): 50% and 13%
Fibroblast; [3]
  Population Healthy Nuclei (%): 7% and 48%
  Population Mitochondria Different-Phenotype (%): 22% and 3%
  Population Mitotic Cells (%): 10% and 61%
Fibroblast; [4]
  Population Healthy Nuclei (%): 37% and 12%
  Population Membrane Permeable-Phenotype (%): 2% and 60%
  Population Mitochondria Different-Phenotype (%): 11% and 40%
  Population Mitotic Cells (%): 33% and 9%
U2OS; [1]
  Population Fragmented Nuclei (%): 22% and 7%
  Population Pyknosed Nuclei (%): 41% and 12%
U2OS; [3]
  Population Healthy Nuclei (%): 14% and 65%
HEK-293T; [2]
  Population Apoptotic (%): 8% and 34%
  Population Mitochondria Different-Phenotype (%): 24% and 82%
HEK-293T; [3]
  Population Healthy Nuclei (%): 14% and 64%
  Population Pyknosed Nuclei (%): 56% and 17%
HEK-293T; [4]
  Population Apoptotic (%): 46% and 5%
  Population Hoechst High Intensity Objects (%): 10% and 3%
  Population Membrane Permeable-Phenotype (%): 2% and 26%
  Population Mitochondria Different-Phenotype (%): 91% and 8%
  Population Pyknosed Nuclei (%): 48% and 4%

## Cc1cc(NC(=O)c2cccc(S(F)(F)(F)(F)F)c2)cc(-n2ccn3nc(-c4cccnc4)cc23)c1 [BAY-309]
Fibroblast; [1]
  Population Membrane Permeable-Phenotype (%): 24% and 4%
  Population Tubulin-Different-Phenotype (%): 84% and 24%
Fibroblast; [3]
  Population Membrane Permeable-Phenotype (%): 10% and 1%
  Population Mitochondria Different-Phenotype (%): 37% and 11%
Fibroblast; [4]
  Population Mitotic Cells (%): 40% and 9%
U2OS; [2]
  Population Mitochondria Different-Phenotype (%): 19% and 79%
U2OS; [3]
  Population Mitochondria Different-Phenotype (%): 21% and 81%
  Population Pyknosed Nuclei (%): 6% and 23%
U2OS; [4]
  Population Mitotic Cells (%): 4% and 62%
  Population Pyknosed Nuclei (%): 24% and 7%
HEK-293T; [1]
  Population Apoptotic (%): 65% and 16%
HEK-293T; [2]
  Population Apoptotic (%): 7% and 45%
  Population Mitochondria Different-Phenotype (%): 14% and 59%
  Population Pyknosed Nuclei (%): 8% and 25%
HEK-293T; [3]
  Population Apoptotic (%): 84% and 17%
  Population Mitochondria Different-Phenotype (%): 53% and 12%
  Population Mitotic Cells (%): 15% and 82%
  Population Pyknosed Nuclei (%): 50% and 12%
HEK-293T; [4]
  Population Apoptotic (%): 5% and 54%
  Population Fragmented Nuclei (%): 15% and 2%
  Population Membrane Permeable-Phenotype (%): 28% and 7%
  Population Mitochondria Different-Phenotype (%): 5% and 65%
  Population Pyknosed Nuclei (%): 5% and 31%

## C#Cc1cccc(Nc2ncnc3cc(OCCOC)c(OCCOC)cc23)c1 [ERLOTINIB]
Fibroblast; [1]
  Population Membrane Permeable-Phenotype (%): 27%, 30%, 5%
  Population Mitochondria Different-Phenotype (%): 22%, 4%, 2%
  Population Tubulin-Different-Phenotype (%): 95%, 73%, 14%
Fibroblast; [2]
  Population Apoptotic (%): 28%, 70%, 100%
  Population Fragmented Nuclei (%): 61%, 50%, 16%
  Population Healthy Nuclei (%): 22%, 33%, 80%
  Population Hoechst High Intensity Objects (%): 42%, 33%, 8%
  Population Mitochondria Different-Phenotype (%): 20%, 14%, 72%
  Population Mitotic Cells (%): 71%, 30%, 0%
  Population Pyknosed Nuclei (%): 15% and 2%
  Population Tubulin-Different-Phenotype (%): 50%, 23%, 86%
  Total Cell Count: 77, 95, 1335
Fibroblast; [3]
  Population Membrane Permeable-Phenotype (%): 30%, 13%, 5%
  Population Mitochondria Different-Phenotype (%): 39%, 12%, 2%
  Population Tubulin-Different-Phenotype (%): 84%, 79%, 7%
Fibroblast; [4]
  Population Fragmented Nuclei (%): 51%, 66%, 16%
  Population Healthy Nuclei (%): 37%, 16%, 66%
  Population Membrane Permeable-Phenotype (%): 31%, 0%, 14%
  Population Mitochondria Different-Phenotype (%): 9%, 28%, 75%
  Population Mitotic Cells (%): 0%, 42%, 25%
  Population Tubulin-Different-Phenotype (%): 22%, 71%, 87%
  Total Cell Count: 81, 68, 1359
HEK-293T; [1]
  Population Mitochondria Different-Phenotype (%): 97%, 16%, 6%
  Population Pyknosed Nuclei (%): 64%, 22%, 15%
  Population Tubulin-Different-Phenotype (%): 91%, 39%, 3%
HEK-293T; [2]
  Population Apoptotic (%): 50%, 12%, 5%
  Population Healthy Nuclei (%): 25%, 85%, 86%
  Population Membrane Permeable-Phenotype (%): 16% and 2%
  Population Mitochondria Different-Phenotype (%): 86% and 22%
  Population Pyknosed Nuclei (%): 62%, 8%, 5%
  Population Tubulin-Different-Phenotype (%): 97%, 72%, 7%
  Total Cell Count: 148, 1179, 1766
HEK-293T; [3]
  Population Apoptotic (%): 70%, 31%, 21%
  Population Membrane Permeable-Phenotype (%): 0%, 26%, 12%
  Population Mitochondria Different-Phenotype (%): 100%, 13%, 5%
  Population Pyknosed Nuclei (%): 58%, 17%, 9%
  Population Tubulin-Different-Phenotype (%): 100%, 59%, 8%
HEK-293T; [4]
  Population Apoptotic (%): 69%, 6%, 5%
  Population Fragmented Nuclei (%): 2% and 27%
  Population Membrane Permeable-Phenotype (%): 10%, 24%, 6%
  Population Mitochondria Different-Phenotype (%): 89%, 14%, 2%
  Population Mitotic Cells (%): 30%, 93%, 94%
  Population Pyknosed Nuclei (%): 59%, 7%, 2%
  Population Tubulin-Different-Phenotype (%): 96%, 83%, 9%
  Total Cell Count: 146, 1531, 2984
